Data published in article PMC4525180.
These are yes or no findings as the source states them, for the method shown. Some results given as binding are weak or reduced against the parent protein; the word gives no strength. For some of these results: Where a sequence is shown, tags or fusion partners need not be part of it.

Sequences of proteins named here, by UniProt entry; tags and fusion partners are left off.
UniProt P25454: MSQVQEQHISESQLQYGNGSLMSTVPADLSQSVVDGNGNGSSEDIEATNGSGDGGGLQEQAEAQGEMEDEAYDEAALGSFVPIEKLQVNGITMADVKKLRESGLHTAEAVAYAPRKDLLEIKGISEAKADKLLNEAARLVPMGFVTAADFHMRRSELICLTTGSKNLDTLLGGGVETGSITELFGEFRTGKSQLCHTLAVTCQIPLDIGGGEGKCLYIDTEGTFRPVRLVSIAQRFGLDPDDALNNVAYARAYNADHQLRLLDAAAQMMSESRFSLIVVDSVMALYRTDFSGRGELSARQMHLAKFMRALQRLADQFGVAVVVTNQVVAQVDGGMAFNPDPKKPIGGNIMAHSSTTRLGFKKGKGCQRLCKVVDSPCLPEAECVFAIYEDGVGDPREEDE

Tests used:
[1] = target: Rad51 (S. cerevisiae) (UniProt P25454); assay: pull-down; pull-down with Rad51; set-up only in Supplementary Fig. 2b; also with Csm2–Psy3 added to Rad55–Rad57 and Rad51; both purified
[2] = target: T1, Psy3 (yeast two-hybrid fusion) (S. cerevisiae) (UniProt Q12318); assay: two-hybrid; diploid yeast with AD and BD plasmids, growth on SC-LEU-TRP-HIS, 30 °C, 2 days; wild-type cells (Rad52–Rad55 also in csm2Δ cells)
T1 sequence: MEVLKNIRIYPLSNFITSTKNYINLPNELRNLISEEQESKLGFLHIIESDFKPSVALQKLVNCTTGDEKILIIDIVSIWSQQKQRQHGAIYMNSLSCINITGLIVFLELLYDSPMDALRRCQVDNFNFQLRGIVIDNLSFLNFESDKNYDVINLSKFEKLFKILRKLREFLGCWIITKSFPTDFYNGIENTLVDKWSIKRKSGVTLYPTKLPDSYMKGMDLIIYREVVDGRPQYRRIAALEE

[3] = target: T2, Rad55 (yeast two-hybrid fusion) (S. cerevisiae) (UniProt P38953); assay: as above
T2 sequence: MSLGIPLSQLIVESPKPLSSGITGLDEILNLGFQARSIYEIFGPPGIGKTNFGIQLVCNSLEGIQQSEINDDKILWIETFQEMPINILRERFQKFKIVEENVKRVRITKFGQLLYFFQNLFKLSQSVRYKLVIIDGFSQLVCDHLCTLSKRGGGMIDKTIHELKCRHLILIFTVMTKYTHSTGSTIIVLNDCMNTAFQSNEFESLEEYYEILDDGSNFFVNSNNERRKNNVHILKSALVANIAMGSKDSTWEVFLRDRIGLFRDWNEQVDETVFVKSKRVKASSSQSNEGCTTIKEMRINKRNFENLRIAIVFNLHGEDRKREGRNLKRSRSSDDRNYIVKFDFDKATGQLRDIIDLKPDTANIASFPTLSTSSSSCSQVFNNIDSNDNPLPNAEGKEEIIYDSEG

[4] = target: Rad51 (yeast two-hybrid fusion) (S. cerevisiae) (UniProt P25454); assay: as above
[5] = target: T3, (His)6-tagged Rad55 (S. cerevisiae) (UniProt P38953); assay: tandem affinity co-purification + SEC; co-expressed in yeast; Ni-NTA (His6-Rad55), anti-FLAG (FLAG-Rad57), Mono Q, SuperDex 200 in 300 mM KCl, with ATP and Mg2+, 4 °C
T3 sequence: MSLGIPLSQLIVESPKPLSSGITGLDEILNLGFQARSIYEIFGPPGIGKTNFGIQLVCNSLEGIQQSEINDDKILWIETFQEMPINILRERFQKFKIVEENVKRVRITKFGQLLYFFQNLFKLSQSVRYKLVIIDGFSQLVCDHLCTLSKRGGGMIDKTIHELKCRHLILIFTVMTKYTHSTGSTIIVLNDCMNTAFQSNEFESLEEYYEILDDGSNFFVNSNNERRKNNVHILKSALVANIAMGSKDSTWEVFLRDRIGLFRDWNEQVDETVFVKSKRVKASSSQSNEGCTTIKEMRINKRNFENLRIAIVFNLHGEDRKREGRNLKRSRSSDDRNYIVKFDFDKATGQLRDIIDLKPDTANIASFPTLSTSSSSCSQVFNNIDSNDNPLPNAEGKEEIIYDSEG

[6] = target: T4, (His)6-tagged Shu1 (S. cerevisiae) (UniProt P38751); assay: tandem affinity co-purification + SEC; co-expressed in E. coli; Ni-NTA (His6-Shu1), amylose (MBP-Shu2, TEV release), anti-FLAG (FLAG-Psy3), SuperDex 200 in 150 mM KCl, 4 °C
T4 sequence: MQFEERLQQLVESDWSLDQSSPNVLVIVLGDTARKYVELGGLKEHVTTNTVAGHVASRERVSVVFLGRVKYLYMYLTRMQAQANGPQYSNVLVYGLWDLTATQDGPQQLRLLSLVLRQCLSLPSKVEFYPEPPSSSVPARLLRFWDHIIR

[7] = target: T5, MBP-tagged Shu2 (S. cerevisiae) (UniProt P38957); assay: as above
T5 sequence: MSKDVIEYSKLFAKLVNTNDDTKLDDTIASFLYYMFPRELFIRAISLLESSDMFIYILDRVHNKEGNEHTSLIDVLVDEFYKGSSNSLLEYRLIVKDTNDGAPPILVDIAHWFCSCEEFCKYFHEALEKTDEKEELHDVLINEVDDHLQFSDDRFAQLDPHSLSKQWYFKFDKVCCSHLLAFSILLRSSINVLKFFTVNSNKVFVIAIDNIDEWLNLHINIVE

[8] = target: T6, FLAG-tagged Psy3 (S. cerevisiae) (UniProt Q12318); assay: as above
T6 sequence: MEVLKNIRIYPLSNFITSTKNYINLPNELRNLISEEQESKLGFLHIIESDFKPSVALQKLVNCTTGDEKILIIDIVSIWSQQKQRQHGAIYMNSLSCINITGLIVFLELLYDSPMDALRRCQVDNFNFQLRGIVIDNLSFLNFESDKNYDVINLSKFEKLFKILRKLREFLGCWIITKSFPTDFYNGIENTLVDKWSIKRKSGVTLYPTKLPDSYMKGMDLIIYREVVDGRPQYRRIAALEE

B1: Csm2–Psy3 heterodimer (complex, UniProt P40465 1-213; Q12318 1-242)
chain 1: MEYEDLELITIWPSPTKNKLCQFIKQNLSKEHVVTQLFFIDATSSFPLSQFQKLVPPTLPENVRIYENIRINTCLDLEELSAITVKLLQILSMNKINAQRGTEDAVTEPLKIILYINGLEVMFRNSQFKSSPQRSHELLRDTLLKLRVMGNDENENASIRTLLEFPKEQLLDYYLKKNNNTRTSSVRSKRRRIKNGDSLAEYIWKYYADSLFE
chain 2: MEVLKNIRIYPLSNFITSTKNYINLPNELRNLISEEQESKLGFLHIIESDFKPSVALQKLVNCTTGDEKILIIDIVSIWSQQKQRQHGAIYMNSLSCINITGLIVFLELLYDSPMDALRRCQVDNFNFQLRGIVIDNLSFLNFESDKNYDVINLSKFEKLFKILRKLREFLGCWIITKSFPTDFYNGIENTLVDKWSIKRKSGVTLYPTKLPDSYMKGMDLIIYREVVDGRPQYRRIAALEE
Q: With B1 as the binder, how does the binding [1] read?
A: binds weakly

B2: Csm2 (yeast two-hybrid fusion) (protein, UniProt P40465 1-213)
chain: MEYEDLELITIWPSPTKNKLCQFIKQNLSKEHVVTQLFFIDATSSFPLSQFQKLVPPTLPENVRIYENIRINTCLDLEELSAITVKLLQILSMNKINAQRGTEDAVTEPLKIILYINGLEVMFRNSQFKSSPQRSHELLRDTLLKLRVMGNDENENASIRTLLEFPKEQLLDYYLKKNNNTRTSSVRSKRRRIKNGDSLAEYIWKYYADSLFE
Q: With B2 as the binder, how does the binding [2] read?
A: binds

Q: What about the binding [3] of the same binder?
A: binds

B3: csm2–F46A (yeast two-hybrid fusion) (protein, UniProt P40465 1-213)
chain: MEYEDLELITIWPSPTKNKLCQFIKQNLSKEHVVTQLFFIDATSSAPLSQFQKLVPPTLPENVRIYENIRINTCLDLEELSAITVKLLQILSMNKINAQRGTEDAVTEPLKIILYINGLEVMFRNSQFKSSPQRSHELLRDTLLKLRVMGNDENENASIRTLLEFPKEQLLDYYLKKNNNTRTSSVRSKRRRIKNGDSLAEYIWKYYADSLFE
Q: For B3, which binding [4] is on record?
A: no binding

Q: What about the binding [2] of the same binder?
A: binds

Q: And the binding [3]?
A: no binding

B4: FLAG-tagged Rad57 (protein, UniProt P25301 1-460)
chain: MPRALSIKFDNTYMDLYDELPESKLLYDEEFSYLLDAVRQNGVCVVDFLTLTPKELARLIQRSINEVFRFQQLLVHEYNEKYLEICEKNSISPDNGPECFTTADVAMDELLGGGIFTHGITEIFGESSTGKSQLLMQLALSVQLSEPAGGLGGKCVYITTEGDLPTQRLESMLSSRPAYEKLGITQSNIFTVSCNDLINQEHIINVQLPILLERSKGSIKLVIIDSISHHLRVELQNKSFRESQENKNYLDRMAEKLQILAHDYSLSVVVANQVGDKPLANSPVAHRTYVTDYDYQLGWLVGWKNSTILYRQMNSLLGASSNNDEILSDDEDYMLIERVMSTVNDRNYDFFSKKKPPIIENKTVERNSSSPISRQSKKRKFDYRVPNLGLTWSNHVSTRILLQKSFKASTIIQRGEAHLYKGGDSASFWQVKRTMKVVYSTFAKPGQIAYQITKRGIETA
Q: With B4 as the binder, how does the binding [5] read?
A: binds

B5: Strep-tagged Csm2 (protein, UniProt P40465 1-213)
chain: MEYEDLELITIWPSPTKNKLCQFIKQNLSKEHVVTQLFFIDATSSFPLSQFQKLVPPTLPENVRIYENIRINTCLDLEELSAITVKLLQILSMNKINAQRGTEDAVTEPLKIILYINGLEVMFRNSQFKSSPQRSHELLRDTLLKLRVMGNDENENASIRTLLEFPKEQLLDYYLKKNNNTRTSSVRSKRRRIKNGDSLAEYIWKYYADSLFE
Q: What does the source list for B5?
A: binding [6]: binds; binding [7]: binds; binding [8]: binds

B6: (His)6-tagged Shu1 (protein, UniProt P38751 1-150)
chain: MQFEERLQQLVESDWSLDQSSPNVLVIVLGDTARKYVELGGLKEHVTTNTVAGHVASRERVSVVFLGRVKYLYMYLTRMQAQANGPQYSNVLVYGLWDLTATQDGPQQLRLLSLVLRQCLSLPSKVEFYPEPPSSSVPARLLRFWDHIIR
Q: Which binding [8] does the source give for B6 here?
A: binds

B7: MBP-tagged Shu2 (protein, UniProt P38957 1-223)
chain: MSKDVIEYSKLFAKLVNTNDDTKLDDTIASFLYYMFPRELFIRAISLLESSDMFIYILDRVHNKEGNEHTSLIDVLVDEFYKGSSNSLLEYRLIVKDTNDGAPPILVDIAHWFCSCEEFCKYFHEALEKTDEKEELHDVLINEVDDHLQFSDDRFAQLDPHSLSKQWYFKFDKVCCSHLLAFSILLRSSINVLKFFTVNSNKVFVIAIDNIDEWLNLHINIVE
Q: For B7, which binding [6] is on record?
A: binds

Q: What about the binding [8] of the same binder?
A: binds

B8: Strep-tagged csm2–F46A (protein, UniProt P40465 1-213)
chain: MEYEDLELITIWPSPTKNKLCQFIKQNLSKEHVVTQLFFIDATSSAPLSQFQKLVPPTLPENVRIYENIRINTCLDLEELSAITVKLLQILSMNKINAQRGTEDAVTEPLKIILYINGLEVMFRNSQFKSSPQRSHELLRDTLLKLRVMGNDENENASIRTLLEFPKEQLLDYYLKKNNNTRTSSVRSKRRRIKNGDSLAEYIWKYYADSLFE
Q: Which binding [6] does the source give for B8 here?
A: binds

Q: What about the binding [7] of the same binder?
A: binds

Q: And the binding [8]?
A: binds
